Measured values from PMC4336329 (PLoS ONE, 2015).
The whole screen tested about 310,000 compounds, of which about 2,200 (0.71%) showed an effect of 50% or more. Effects have a minus sign here. The list shows a part of the results.

The compounds below were run against human ether-à-go-go-related gene (hERG) potassium channel (human, UniProt Q12809) (assay: primary screen, population patch clamp on CHO cells stably expressing hERG).
Chain of human ether-à-go-go-related gene (hERG) potassium channel (Q12809 whole entry, looked up): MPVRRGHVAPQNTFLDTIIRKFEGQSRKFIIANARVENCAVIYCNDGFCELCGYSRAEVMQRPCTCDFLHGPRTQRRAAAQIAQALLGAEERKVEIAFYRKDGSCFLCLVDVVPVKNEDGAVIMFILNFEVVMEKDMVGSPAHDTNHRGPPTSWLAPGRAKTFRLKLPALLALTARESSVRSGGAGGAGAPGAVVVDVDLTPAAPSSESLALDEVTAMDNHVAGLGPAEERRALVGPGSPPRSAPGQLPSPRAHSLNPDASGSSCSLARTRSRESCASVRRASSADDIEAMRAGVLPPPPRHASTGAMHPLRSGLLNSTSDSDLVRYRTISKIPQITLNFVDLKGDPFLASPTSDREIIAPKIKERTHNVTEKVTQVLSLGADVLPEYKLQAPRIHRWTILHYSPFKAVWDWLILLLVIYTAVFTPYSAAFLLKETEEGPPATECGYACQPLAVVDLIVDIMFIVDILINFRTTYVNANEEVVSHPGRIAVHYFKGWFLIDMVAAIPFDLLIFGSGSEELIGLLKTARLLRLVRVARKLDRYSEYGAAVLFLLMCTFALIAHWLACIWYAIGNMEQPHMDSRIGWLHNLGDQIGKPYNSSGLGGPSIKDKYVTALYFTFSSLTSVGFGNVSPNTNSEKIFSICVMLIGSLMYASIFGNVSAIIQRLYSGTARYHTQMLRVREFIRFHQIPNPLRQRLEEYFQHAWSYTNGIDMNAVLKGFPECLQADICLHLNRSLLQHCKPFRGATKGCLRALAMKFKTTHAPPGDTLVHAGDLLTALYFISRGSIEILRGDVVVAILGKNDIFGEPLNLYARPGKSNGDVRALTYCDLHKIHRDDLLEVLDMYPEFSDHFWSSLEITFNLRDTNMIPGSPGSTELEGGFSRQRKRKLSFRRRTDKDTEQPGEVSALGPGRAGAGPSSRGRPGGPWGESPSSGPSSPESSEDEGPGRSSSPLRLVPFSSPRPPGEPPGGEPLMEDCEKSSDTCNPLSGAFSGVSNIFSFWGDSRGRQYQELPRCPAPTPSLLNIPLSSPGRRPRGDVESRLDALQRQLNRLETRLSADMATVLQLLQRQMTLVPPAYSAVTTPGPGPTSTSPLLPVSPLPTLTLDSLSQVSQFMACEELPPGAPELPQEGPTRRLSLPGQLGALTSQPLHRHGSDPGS

SMILES	hERG current change (%, negative = inhibition) at 1uM
CCOC(=O)c1cc(-c2ccccc2)nc2c1c(C)nn2-c1ccccn1	4.42%
O=c1[nH]c(=S)n(-c2ccccc2Cl)c(O)c1C=NCCN1CCNCC1	10.1%
COc1ccc(C(=O)NCCS(=O)(=O)NCc2ccco2)cc1	18.4%
C=CCN(c1ccccc1)S(=O)(=O)c1cccc(C(=O)NCC(c2ccc(F)cc2)N2CCOCC2)c1 (centres unmarked)	-0.427%
CCOc1ccc(NC(=O)c2ccc(CC)s2)c([N+](=O)[O-])c1	6.76%
CCCCn1c(C(C)O)nc2ccccc21 (centres unmarked)	11.9%
COc1ccc(/C=C/c2ccccc2)cc1[C@H]1[C@@H]2C=CCC[C@@]2(C)C(=O)N1Cc1ccccc1	11.7%
CCCN1C(=O)/C(=C/c2ccc(N3CCOCC3)cc2)NC1=S	1.14%
COC(=O)c1cc(CN2CCN(c3ccccc3C)CC2)ccc1O.Cl	6.31%
Cc1cc(C)cc(NC(=O)CCCN2C(=O)C(c3ccccc3)Oc3cccnc32)c1 (centres unmarked)	27.6%
O=C(Nc1ccccn1)c1nc(-c2ccccc2)n(-c2ccccc2)n1	-1.7%
c1ccc(SCc2nc(-c3ccccn3)no2)cc1	-6.25%
O=C(N/N=C/c1ccco1)c1cnccn1	10.1%
Oc1c(-c2cc(-c3ccco3)[nH]n2)ccc2ccccc12	12%
N=C1/C(=C\c2ccc(SCc3ccccc3)o2)C(=O)N=C2SC=NN12	17.4%
CCOc1ccc2[nH]c(SCC(=O)OC)c([N+](=O)[O-])c2c1	5.41%
COC(=O)NNC(=O)C1CCC(C)CC1 (centres unmarked)	1.23%
C=C[C@@]1(C)CC(=O)[C@]2(O)[C@@]3(C)[C@@H](O)CCC(C)(C)[C@@H]3[C@H](O)[C@H](OC(C)=O)[C@@]2(C)O1	4.98%
Cc1cc(NC(=O)COC(=O)C2CC(=O)N(c3cccc(C)c3C)C2)no1 (centres unmarked)	11%
CCOC(=O)c1cc(C(=O)c2ccccc2O)cn2c(=O)c3c(C)c(C)sc3nc12	5.26%
O=C(C1CCCN(Cc2ccc3c(c2)OCO3)C1)N1CCCC1.O=C(O)C(=O)O (centres unmarked)	9.76%
CCNc1nc(NCC)n2c(SCc3ccc(F)cc3)nnc2n1	10.6%
Cc1ccc(C2CN(C)C3(C(=O)Nc4ccccc43)C23COc2ccccc2C3=O)cc1 (centres unmarked)	9.13%

SMILES	hERG current change (%, negative = inhibition) at 1uM
CCOc1cc(/C=N\NC(=O)CN2CCOCC2)ccc1OCc1ccc(F)cc1	-2.13%
CCCCNC(=O)c1c(N)n(CCCOC)c2nc3ccccc3nc12	7.61%
COCCn1c(-c2ccc(NC(C)=O)cc2)nc2c1c(=O)[nH]c(=O)n2CC(C)C	10.8%
O=C(Nc1ccc2c(c1)nc1n2CCN(Cc2ccccc2)C1)NC1CCCCC1	1.79%
O=[N+]([O-])c1ccc(NNC(=S)Nc2ccccc2)cc1	-2.75%
CCOc1ccc(-c2nnc3ccc(SCC(=O)Nc4cc(C)on4)nn23)cc1	15.2%
O=C(O)COc1ccc(Cl)cc1Cl	8.1%
Cc1cc(=O)c(C(=O)OC(C)C(=O)NC(N)=O)nn1-c1ccc(Cl)cc1 (centres unmarked)	18.2%
Cc1cc(O)cc2c(=O)c3ccccc3sc12	3.61%
CN(C)C(=O)CN1C(=O)NC2(CCc3ccccc32)C1=O (centres unmarked)	14.9%
CC(OC(=O)C1CC=CCC1C(N)=O)C(Cl)=C(Cl)Cl (centres unmarked)	16.4%
O=C(N/N=C/c1ccc[nH]1)c1ccc(Cl)cc1	3.91%
COc1ccc(C(=O)N/N=C(\Cc2ncc[nH]2)c2ccccc2)cc1	12.8%
CC(=O)O.COc1c(O)ccc(C2NC(=O)NC(C)=C2C(=O)Nc2ccccc2C)c1[N+](=O)[O-] (centres unmarked)	30.2%
C[C@H](NC(=O)c1ccc(Cl)cc1)C(=O)NCCc1ccc(S(N)(=O)=O)cc1	5.4%
Cc1nc(N2CCOCC2)nc(N2CCCCC2)c1[N+](=O)[O-]	13.8%
Cc1c(NC(=O)CCSc2ccc(Cl)cc2)c(=O)n(-c2ccccc2)n1C	-2.6%
CCOC(=O)c1sc(=S)n(-c2ccccc2)c1N(C(C)=O)C(C)=O	15.5%
CC1=C(C(=O)OCC(C)C)C(c2cccs2)NC(=S)N1 (centres unmarked)	8.49%
CCCCN(CC)C(=O)c1cccc(Cl)c1	10%
Cc1nonc1OCCNCc1c(C(=O)N2CCCCCCC2)nc2ccc(Cl)cn12	9.53%
COC(=O)c1ccc(CSc2nnc(Nc3cccc(OC)c3)s2)o1	10.7%
CN(CC(=O)NCc1ccccc1)CC(=O)Nc1ccc(Cl)c(C(F)(F)F)c1	2.05%

SMILES	hERG current change (%, negative = inhibition) at 1uM
COCCCn1c(SCc2nnc(-c3ccc(OC)c(OC)c3)o2)nnc1-c1ccncc1	5.03%
C(=N\Nc1nnnn1-c1ccccc1)/c1ccncc1	10.5%
O=[N+]([O-])c1cccc(-c2cn3nc(-c4ccccc4)c(-c4ccccc4)nc3n2)c1	1.03%
C=CCn1c(SCC(=O)Nc2ccc(C(=O)OCC)cc2)nnc1-c1cccs1	12.3%
CCCOC(=O)C1C2C=CC3(CN(c4ccc(Cl)c(F)c4)C(=O)C13)O2 (centres unmarked)	5.82%
Cc1ccccc1C1NC(=S)NC2=C1C(=O)CCC2 (centres unmarked)	7.89%
O=C(CCC(=O)N1CCCCCC1)NCc1ccc(F)cc1	3.53%
Cc1cc(N)ccc1-c1cc2ccccc2oc1=O	17.4%
O=c1[nH]c(CSc2ncc(C(F)(F)F)cc2Cl)nc2ccccc12	11.6%
CCc1nc2nc(C)c(NS(=O)(=O)c3ccc(Cl)cc3)c(=O)n2[nH]1	5.56%
Cc1ccc2nc(N3CCN(c4cccc(C)c4C)CC3)c3nnnn3c2c1	10.1%
COC(=O)c1cc(C(=O)N2CCN(c3ccccc3OC)CC2)cc([N+](=O)[O-])c1	-6.52%
Cc1cccnc1-n1c(-c2ccco2)nc2ccccc2c1=O	14%
COc1ccc(-c2ccc(C(=O)O)o2)c([N+](=O)[O-])c1	14.5%
O=C(NCCN1CCOCC1)c1cc2sccc2n1Cc1ccc(Cl)cc1	-13.4%
Cc1ccnc(NS(=O)(=O)c2ccc(NC(=O)C(C)(C)C)cc2)n1	12.6%
Cc1nc(C(=O)Nc2ccccc2)sc1C1(C)CC(c2cccnc2)=NO1 (centres unmarked)	11.5%
FC(F)(F)c1ccc(Cl)c(-n2c(-c3ccco3)n[nH]c2=S)c1	10.7%
O=C(Nc1nnc(C2CC2)s1)C1CCCCC1	-1.02%
COC(=O)C12CC3CC(C1)CC(n1cnc(Cl)n1)(C3)C2	-1.91%
CCOC(=O)CN1NC2(CCC(C)CC2)NC1=S (centres unmarked)	6.86%
COc1ccc(C(=O)c2ccc(OC)cc2OC)cc1	14.1%
CCc1ccccc1NC(=O)CN1CCN(C(=O)CN2C(=O)NC3(CCCC3)C2=O)CC1	7.11%

SMILES	hERG current change (%, negative = inhibition) at 1uM
CCN(C(=O)CN1CCCCC1)c1c(N)n(Cc2ccccc2)c(=O)[nH]c1=O	5.48%
CCn1c(SCC(=O)Nc2ccc(C(C)=O)cc2)nc2ccccc21	1.49%
COc1cc(C)nc(N(Cc2ccccc2)S(=O)(=O)c2ccc(C)cc2)n1	4.51%
CC1CC(C)(C)NC(=S)N1CCCC(=O)Nc1ccc(Br)cc1 (centres unmarked)	10.5%
O=c1[nH]n(-c2ccc(Cl)cc2)c(=O)c(Cl)c1Cl	10.6%
Cc1c(OCC(=O)NC(Cc2ccc(Cl)cc2)C(=O)O)ccc2c1oc(=O)c1ccccc12 (centres unmarked)	2.86%
CC1CCCN(CCCNC(=O)c2ccc(CS(=O)(=O)c3c(Cl)cccc3Cl)o2)C1 (centres unmarked)	4.14%
N#CC(Nc1ccccc1)c1ccccc1OCc1ccccc1 (centres unmarked)	8.4%
Cc1cccc(N2CCN(Cc3oc(CO)cc(=O)c3O)CC2)c1C	13.7%
Cc1cccc(CN2CCN(c3ccc(Cl)cc3)CC2)c1	12.7%
CN(C)c1cccc(C(=O)OCC(=O)Nc2nccs2)c1	14.1%
COc1ccc(NC(=O)CCC(=O)Nc2nnc(C(F)(F)F)s2)c(OC)c1	5.23%
CCOc1ccc(NS(=O)(=O)c2cc3c(cc2C)N(C)CCO3)cc1	9.19%
Cc1ccc(Cl)cc1NS(=O)(=O)Cc1ccccc1	14.1%
CC(C)NC(=S)NN=C1c2ccccc2-c2ccccc21	9.27%
CN(C)c1cccc(C(=O)Nc2cccc(S(=O)(=O)NC3=NCCC3)c2)c1	17%
CN(c1ccc([N+](=O)[O-])cc1C(=O)Nc1ccccc1)C1CCCCC1	-0.371%
COCc1ccc(CN2CCCC(C(=O)Nc3ccc(-c4cscn4)cc3)C2)o1 (centres unmarked)	18.1%
COc1ccc(-n2c(SCC(=O)NCc3cccs3)nnc2-c2ccoc2C)cc1	-55.9%
CC(C)C(NC(=O)c1ccco1)C(=O)NCC(c1ccco1)N(C)C (centres unmarked)	14.8%
